# Several values for one entry are separate records, joined by “and”; a condition that tells them apart may be missing. Equal entries are not always repeated. Hit rate of the full screen: of about 400,000 compounds, about 2,200 (0.55%) were called active. Inconclusive means that the source gave no clear call. Such entries were picked first, then a sample of the others. Calls come from the whole dose curve; as a rule, active = well fitted inhibition curve with a large enough effect; inconclusive = small, poorly fitted or top-dose-only effect, or another doubt; inactive = no such curve, though single readings can be large or run the other way. Potencies of inconclusive entries are doubtful fits and often do not repeat. Some structures have more than one record in an assay (separate samples or runs), and their calls can disagree.
# Molecular target: DNA polymerase kappa (Homo sapiens) (UniProt Q9UBT6)
# Assay: qHTS for Inhibitors of Polymerase Kappa
# Conditions: purified Pol kappa, fluorescent DNA synthesis assay, 10 min; series mostly up to 107 µM; activity, negative = inhibition: at the top concentration
# Summary of the method: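 10 nM Pol kappa preincubated 15 min at room temperature with compounds, then reaction started with substrate at 50 nM final. Fluorescence read kinetically at 0 and 10 min; buffer-only wells served as negative control.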
# % is set by controls: 0 for no effect and ±100 for the full control effect; potency is the fitted concentration of half-maximal effect; tags give direction and shape of the fitted curve.
# Sequence of UniProt Q9UBT6 (Q9UBT6 whole entry, looked up): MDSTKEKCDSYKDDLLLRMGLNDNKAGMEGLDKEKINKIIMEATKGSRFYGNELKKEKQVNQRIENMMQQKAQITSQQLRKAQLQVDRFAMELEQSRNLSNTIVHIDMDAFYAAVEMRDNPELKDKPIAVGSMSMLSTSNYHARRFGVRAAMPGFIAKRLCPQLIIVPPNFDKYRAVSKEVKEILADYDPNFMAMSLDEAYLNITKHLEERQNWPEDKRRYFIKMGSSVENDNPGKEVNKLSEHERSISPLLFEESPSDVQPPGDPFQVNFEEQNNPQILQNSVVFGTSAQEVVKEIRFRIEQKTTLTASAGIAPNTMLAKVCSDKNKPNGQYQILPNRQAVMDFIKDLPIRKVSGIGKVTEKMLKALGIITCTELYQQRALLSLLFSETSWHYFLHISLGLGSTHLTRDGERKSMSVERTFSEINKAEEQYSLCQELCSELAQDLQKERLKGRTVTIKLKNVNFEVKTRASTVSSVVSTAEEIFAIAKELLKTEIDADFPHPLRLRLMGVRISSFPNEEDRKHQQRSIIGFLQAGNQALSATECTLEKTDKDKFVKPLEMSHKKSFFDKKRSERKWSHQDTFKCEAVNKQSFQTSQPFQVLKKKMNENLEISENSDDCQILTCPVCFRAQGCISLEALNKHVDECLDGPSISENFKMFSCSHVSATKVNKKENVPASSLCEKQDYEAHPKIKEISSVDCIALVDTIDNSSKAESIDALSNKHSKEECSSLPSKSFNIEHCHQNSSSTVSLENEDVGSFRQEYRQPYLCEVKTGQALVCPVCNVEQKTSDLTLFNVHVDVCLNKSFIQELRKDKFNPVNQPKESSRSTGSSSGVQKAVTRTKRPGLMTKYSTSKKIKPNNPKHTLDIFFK
Compound,Potency,"activity, negative = inhibition"
Cc1nn(CCc2nc(-c3ccco3)cs2)c2[nH]c(=O)cc(C(F)(F)F)c12,active: 35.5 µM,
COc1cc(C2C(C#N)=C(N)OC3=C2C(=O)CC(C)(C)C3)cc2c1OCO2 (stereo not drawn),"inconclusive: 100 µM [inhibitor, single point]",
CN(C)C=Nc1ncc2c3ccccc3n(CCN(C)C)c2c1C#N,"inconclusive: 89.1 µM [inhibitor, single point]",
COCCN1C(=O)C(=O)/C(=C(/O)c2cccc(OC)c2)C1c1ccco1 (stereo not drawn),"inconclusive: 79.4 µM [inhibitor, single point]",
COc1cccc2c1C(=O)c1c(O)c3c(c(O)c1C2=O)CC(O)(C(C)=O)CC3OC1CC(O)C(O)C(C)O1 (stereo not drawn),"inconclusive: 25.1 µM [inhibitor, partial curve, poor fit]",
COCCc1ccc(OCC(O)CNC(C)C)cc1 (stereo not drawn),"inconclusive: 4.47 µM [inhibitor, single point]",
COc1ccc(Cl)cc1S(=O)(=O)NC(C)C(=O)NCc1ccncc1 (stereo not drawn),"inconclusive: 100 µM [inhibitor, partial curve, poor fit]",
Cc1cccc(NC(=O)CSc2cn(CC(=O)N3CCOCC3)c3ccccc23)c1C,,inactive: -0.284%
CC1(OC(=O)C2CCCC2)C(=O)C=C2C=C(c3ccsc3)OC=C2C1=O (stereo not drawn),"inconclusive: 56.2 µM [inhibitor, partial curve, poor fit]",
C=C(C)C(=O)OCCCCCCOc1ccc(C(=O)O)cc1,active: 25.1 µM,
CCC(C)C(=O)OC1CCC=C2C=CC(C)C(CCC3CC(O)CC(=O)O3)[C@@H]21 (stereo partly drawn),,inactive: -14.5% [at 19.4 µM]
CCOC(=O)c1cc(-c2ccc(/C=C3/C(=O)NC(=O)C(C#N)=C3C)o2)ccc1Cl,"inconclusive: 50.1 µM [inhibitor, partial curve]",
COc1ccc(N2Cc3cccc(C(=O)O)c3C2=O)cc1,"inconclusive: 10 µM [inhibitor, full curve, poor fit]",
COc1ccc(-c2noc(CSc3nc4ccccc4[nH]3)n2)cc1OC,,inactive: -4.18%
CCN(CC)CCCNc1nc2ccccc2c2nc(-c3ccncc3)nn12,"inconclusive: 100 µM [inhibitor, single point]",
Cc1cc(C)c2nc(-c3ccccn3)cc(C(=O)Nc3ccc(S(=O)(=O)Nc4cc(C)on4)cc3)c2c1,"inconclusive: 89.1 µM [inhibitor, single point]",
CCCCCCC[n+]1c(/C=C/c2ccc(N(C)C)cc2)sc2ccccc21,active: 39.8 µM,
C/C(N)=C(/C#N)C(=O)COC(=O)C1Cc2ccccc2CN1S(C)(=O)=O (stereo not drawn),"inconclusive: 50.1 µM [inhibitor, partial curve, poor fit] and inconclusive: 89.1 µM [inhibitor, single point]",
Cc1ccc(NC(=O)CN2C(=O)S/C(=C/c3ccc(-c4cccc(C(=O)O)c4)o3)C2=O)cc1,active: 31.6 µM,
Cc1ccc(-n2c(SCC(=O)N3CCOCC3)nc(O)c(Cc3ccccc3)c2=O)cc1,"inconclusive: 89.1 µM [inhibitor, partial curve, poor fit]",
Cc1cccc(-c2nc3c(cnn3-c3ccccc3)c(=O)n2-c2ccc(Cl)cc2)c1,,inactive: 1.26%
O=S1(=O)Nc2c(cc(Cl)c3ccc(Cl)nc23)-c2ccccc21,active: 79.4 µM,
CC(NS(=O)(=O)c1ccccc1)C(=O)NC1CCCC1 (stereo not drawn),,inactive: -8.5%

Compound,Potency,"activity, negative = inhibition"
O=C(N/N=C/c1ccoc1)c1ccccc1O,"inconclusive: 89.1 µM [inhibitor, single point]",
CCOC(=O)c1c(NS(=O)(=O)c2cccc(OC)c2)sc2c1CCC2,"inconclusive: 89.1 µM [inhibitor, single point]",
COc1ccc(CNC(=O)CCC2N=C3c4ccccc4N=C(SCc4ccc(F)cc4)N3C2=O)cc1 (stereo not drawn),,inactive: -8.18% [at 60.1 µM]
CCC(=O)OC1(C)C(=O)C=C2C=C(CCCC(=O)OC)OC=C2C1=O (stereo not drawn),"inconclusive: 56.2 µM [inhibitor, partial curve, poor fit]",
O=C(O)C1(C(=O)O)CCC1.[NH2-].[NH2-].[Pt+2],active: 8.91 µM,
CCOCCCn1c(=S)[nH]c2cc(C(=O)NCCc3ccccc3)ccc2c1=O,,inactive: -12%
O=C(O)C1Sc2[nH]c(=O)sc2C2c3cc(Br)ccc3OC(=O)C12 (stereo not drawn),,inactive: -44.8%
COc1ccc(CC(=O)Nc2ccc3nc(Nc4cccc(Cl)c4)cc(C)c3c2)cc1,"inconclusive: 100 µM [inhibitor, single point]",
C=Cc1ccc(Cn2c(C(=O)O)c(CNCCc3ccccc3)c3ccc(C)cc32)cc1,,inactive: -1.24%
Cc1ccc(Cl)cc1N1CCN(C(=O)c2ccc(CS(=O)(=O)c3ccc(Br)cc3)o2)CC1,"inconclusive: 100 µM [inhibitor, single point]",
Cc1cc(-c2ccc(S(=O)(=O)Nc3cc(Cl)ccc3C)s2)on1,,inactive: -12.6%
Fc1cc(F)c2nc(Nc3nc4cc5c(cc4s3)OCO5)sc2c1,"inconclusive: 39.8 µM [inhibitor, full curve]",
CCn1c2ccccc2c2cc(NC(=O)COC(=O)c3ccc(NC(=O)CC#N)cc3)ccc21,active: 22.4 µM,
Cc1ccc(C(=O)Nc2nc(=O)n(C(=O)c3ccccc3Cl)s2)cc1,"inconclusive: 89.1 µM [inhibitor, single point]",
CC(C)c1nnc(NC(=O)CCC(=O)NC2CC2)s1,"inconclusive: 89.1 µM [inhibitor, single point]",
CCc1nc(SCC(=O)Nc2ccccc2)c2c(=O)n(C)c(=O)n(C)c2n1,"inconclusive: 89.1 µM [inhibitor, single point]",
Cc1ccc(-n2nc3ccc(N)cc3n2)cc1Cl,,inactive: -11.5%
C=C(C)C(=O)Nc1cccc(C2=NOC3(C2)C[C@H](C(N)=O)N(C(=O)C(c2ccccc2)c2ccccc2)C3)c1 (stereo partly drawn),active: 25.1 µM,
C/C(N)=C(/C#N)C(=O)CSc1nc2cc(Cl)ccc2s1,"inconclusive: 100 µM [inhibitor, single point]",
COc1ccc(N=C2S/C(=C\c3cc(C)n(C)c3C)C(=O)N2CC(C)C)cc1,,inactive: -7.63%
CCOC(=O)C1=C(O)C(=O)N(Cc2ccccc2)C1,"inconclusive: 12.6 µM [inhibitor, partial curve]",
CCCSC1=N/C(=C\C=C\c2ccco2)C(=O)S1,active: 22.4 µM,
CN1CCc2[nH]c3ccc(C(=O)NN)cc3c2C1,"inconclusive: 79.4 µM [inhibitor, partial curve, poor fit]",

Compound,Potency,"activity, negative = inhibition"
COc1ccc2[nH]c(=O)c(CN(C3CCCCC3)C(c3nnnn3Cc3ccco3)C(C)C)cc2c1 (stereo not drawn),"inconclusive: 56.2 µM [inhibitor, partial curve, poor fit]",
CC(C)CNC(=O)C1Nc2ccc(OC(F)(F)F)cc2C2C=CCC12 (stereo not drawn),"inconclusive: 100 µM [inhibitor, partial curve, poor fit]",
Cc1c(NC(=O)C(C)OC(=O)c2cccnc2)c(=O)n(-c2ccccc2)n1C (stereo not drawn),,inactive: -6.2%
O=C(O)c1ccc(Cn2cc(/C=C\[N+](=O)[O-])c3ccccc32)o1,"inconclusive: 79.4 µM [inhibitor, partial curve, poor fit]",
Cc1ccc(NC(=O)c2cccc3c(=O)c4c([nH]c23)CCCC4)c(C)c1,,inactive: 9.22%
Cc1cccc(NC(=S)N2CCN(C(=O)c3ccco3)CC2)c1C,,inactive: 1.47%
COC(=O)CCC(=O)OC1(C)C(=O)C2=CN(Cc3ccccc3)C(c3ccc(OC)cc3)=CC2=C(Br)C1=O (stereo not drawn),,inactive: 5.96%
CC1=Nc2ccccc2/C1=C\c1nc(-c2ccc(F)cc2)oc1O,"inconclusive: 22.4 µM [inhibitor, full curve, poor fit]",
CCOc1ccc(/C=C2\SC(=S)N(N3C(=O)C4CC4C3=O)C2=O)cc1 (stereo not drawn),,inactive: -12.1%
CCn1cc(C(=O)N[C@@H](CC(C)C)C(=O)NCCCn2ccnc2)c(=O)c2cc3c(cc21)OCO3,,inactive: 9.11%
Cc1cc(NC(=O)CN2CCCCCCC2)no1,,inactive: -12.4% [at 60.1 µM]
N#CC(C#N)=C1C=C2C=C(N3CCCCCC3)CCC2CC1 (stereo not drawn),"inconclusive: 56.2 µM [inhibitor, partial curve, poor fit]",
O=C(/C=C/Nc1ccc(S(=O)(=O)Nc2cnc3ccccc3n2)cc1)c1ccccc1,,inactive: -13.2%
CC(Oc1ccc(Br)cc1)C(=O)Nc1ccncc1 (stereo not drawn),"inconclusive: 89.1 µM [inhibitor, single point]",
CC(C)C(CC(=O)NCc1ccco1)c1ccco1 (stereo not drawn),"inconclusive: 89.1 µM [inhibitor, single point]",
C[C@@H]1CC=C[C@@H]2[C@H]1C(=O)N(Cc1ccccc1)[C@H]2c1ccccc1Br,"inconclusive: 56.2 µM [inhibitor, partial curve, poor fit]",
CSc1ccc(C2C(C#N)=C(N)N(c3ccccc3)C3=C2C(=O)CCC3)cc1 (stereo not drawn),"inconclusive: 89.1 µM [inhibitor, partial curve, poor fit]",
CCN(CC)c1ccccc1/C=C/[n+]1ccc(CCCCI)c2ccccc21,active: 50.1 µM,
O=C(CCc1nc2sc3c(c2c(=O)[nH]1)CCCC3)NCC(=O)Nc1ccccc1Br,"inconclusive: 79.4 µM [inhibitor, single point]",
Cc1ccc(NC(=O)CN(C)C(=O)COc2ccc(C(=O)c3ccc(F)cc3)cc2)cc1,"inconclusive: 89.1 µM [inhibitor, partial curve, poor fit]",
COc1ccccc1N(C)S(=O)(=O)c1ccc(C(=O)Nc2cccc(S(=O)(=O)N3CCOCC3)c2)cc1,,inactive: -2.78%
O=C(NCc1ccc(Cl)cc1)C1CCN(S(=O)(=O)c2ccc(F)cc2)CC1,"inconclusive: 89.1 µM [inhibitor, single point]",

# Reference: PubChem BioAssay AID588579 (National Center for Advancing Translational Sciences (NCATS), 2011)
